In ChEMBL document CHEMBL4888484, “Replenishing the malaria drug discovery pipeline: Screening and hit evaluation of the MMV Hit Generation Library 1 (HGL1) against asexual blood stage Plasmodium falciparum ,using a nano luciferase reporter read-out” (2022):
Out of some 150,000 compounds screened, about 540 (0.36%) showed an effect of 50% or more. This is one part of the list.

The molecules below were run on Plasmodium falciparum (assay: Primary screen in NF54 nanoGlo assay, in single point, at 2uM, 72h; a lower Z score goes with more inhibition). Conditions: timepoint 72 hour.
Type: functional, Erythrocyte

SMILES | % Inhibition [%] | Z score
O=C(c1ccc2nccnc2c1)N1CCC[C@H]1c1nc(-c2ccccc2)no1 | -9 | 1.86
CCn1c(CCc2cccc(NS(=O)(=O)c3ccc4c(c3)CCCC4)c2)nc2ccccc21 | -7 | 0.85
CC(C)c1cc(C(=O)N2CC(C)(C)[C@@H]2C2CC2)nn1C | -8 | 1.04
CCOc1ccc(N2C[C@@H](C(=O)Nc3cccc4cccnc34)CC2=O)cc1 | 2 | -0.47
ON1COc2ccc3ccccc3c2C1 | -8 | 1.02
Cc1ccc(NC(=O)Cc2nnc(-c3ccc4ncccc4c3)o2)c(Cl)c1 | -6 | 0.57
O=C1C[C@@H]2CCN(CC3CCCC3)C[C@@H]2CCOc2ccccc2N1 | 4 | -0.69
Clc1ccc(CN2CCCO[C@@H](CN3CCOCC3)C2)o1 | 0 | 0
CN(C(=O)[C@H]1CC(=O)N(Cc2cccc(C(F)(F)F)c2)C1)C1CC1 | -18 | 3.38
COC(=O)CC[C@@H]1CN(Cc2ccc(F)cc2)CC[C@@H]1N1CCN(c2cccc(C(F)(F)F)c2)CC1 | 8 | -1.02
Cc1sc([C@@H]2CCCN2c2nc3ccccc3c(=O)[nH]2)nc1C(=O)O | 3 | -0.52
CC(C)(C)OC(=O)N1CCC2(CC1)CCN2C(=O)c1ccc(O)c(Cl)c1 | -8 | 0.84
Cc1ccc(S(=O)(=O)Nc2ccc(NS(=O)(=O)c3ccc(C)cc3)c3ncccc23)cc1 | -4 | 0.48
CC(C)c1nn(C)cc1NC(=O)N1CCC(CN2CCNC2=O)CC1 | -12 | 1.87
O=C(Nc1sc2c(c1C(=O)O)CCC2)c1ccsc1 | 34 | -4.85
Cc1nc2c(c(=O)n1CC(=O)Nc1ccc3c(c1)OCO3)CN(Cc1ccccc1)CC2 | 3 | -0.33
O=C(N[C@H]1CCCNC1=O)c1cc(COc2ccc(F)cc2F)[nH]n1 | -4 | 0.56
O=C(NCc1cccnc1)c1cc(-c2ccccc2F)nc2cc(-c3ccccc3)nn12 | -4 | 0.62
Cn1cc(NC(=O)C2=NNC(=O)CC2)cn1 | -13 | 2.22
CC(=O)CC(=O)Nc1ccccc1Br | -6 | 0.79
O=C(Nc1ccc(N2CCCN(Cc3ccco3)CC2)nc1)Nc1ccc(F)cc1F | -7 | 0.92
COc1cc(OC)c2ncc(C#N)c(N(C)CC(N)=O)c2c1 | 1 | -0.09
CC(C)(C)c1nsc(NC[C@]2(O)CCOC2)n1 | -1 | 0.15
CN(C)CCN1C(=O)N[C@@](CCc2ccccc2)(C2CCN(C(=O)CC3CCCCC3)CC2)C1=O | -10 | 1.87
COc1cc(C(=O)N2CCCN(c3cc(=O)n(C)c(=O)n3C)CC2)cc(OC)c1OC | -5 | 0.71
C[C@H]1CN(CCC(=O)N2CCc3ccccc3C2)C(C)(C)CO1 | 6 | -0.74
COC[C@H](C)Nc1ccc(-n2ccnn2)cc1 | -5 | 0.85

SMILES | % Inhibition [%] | Z score
O=C1c2cccnc2CN1C1CCN(Cc2ccccc2)CC1 | 2 | -0.34
CCCNC(=O)c1ccc(COc2ccc3c(c2)[C@H](c2cccc(F)c2)N(C(=O)C(C)C)CC3)o1 | -16 | 2.02
Cn1ncc2c(N)nc(N3C[C@H]4CCC[C@@H](C4)C3)nc21 | -6 | 0.95
CCN(CCOc1ccc(OC)cc1)C(=O)COC(C)C | 0 | -0.08
O=C(N1CCOCC1)C(F)(F)C(F)(F)OC(F)(F)F | -10 | 1.39
Cc1nn(C)cc1CN(C)CCn1cnnc1C | -11 | 1.72
CC(C)C1CCN(Cc2nnc(-c3ccco3)o2)CC1 | -4 | 0.41
O=C(N[C@@H]1c2ccccc2CC[C@@H]1O)c1cc(OCC(F)F)ccn1 | -18 | 2.12
Cc1ccc(-c2cc(C(=O)N3CCOCC[C@@H]3C)[nH]n2)cc1C | -7 | 1.37
O=C(Cc1ccc2cn[nH]c2c1)N1CCOC[C@@H]1CC1CC1 | -7 | 1.12
CC(C)c1cc(C(C)C)n(C2CCN(C(=O)c3cccs3)CC2)n1 | -5 | 0.81
O=C(NC[C@H]1O[C@@H](CO)[C@@H](O)[C@H]1N1CCOCC1)c1cccc(F)c1 | -13 | 1.72
COc1ccc(F)cc1S(=O)(=O)N1C[C@H]2CCCC(=O)N[C@H]2C1 | 31 | -3.57
CCN=C(NCc1noc(C)n1)N(C)Cc1ccc(OC)c(F)c1 | 1 | -0.08
COc1ccc(-c2nn3c(C(C)=O)c(-c4ccccc4)c4c3n2CCCC4)cc1 | 3 | -0.41
O=C(c1cccc2c1OCO2)N1C[C@@H]2CCCN(C(=O)c3cccc4c3OCO4)[C@@H]2C1 | 4 | -0.68
O=C(NCc1ccc2c(c1)OCO2)[C@H]1CCCN(c2nnc3ccccn23)C1 | -10 | 1.08
Cc1noc(C2CCCN(C(=O)C(C)n3ccnc3)C2)n1 (stereo unspecified) | -9 | 0.95
CC(C)Cc1nnc(NC(=O)[C@H](Cc2ccccc2)NC(=O)N2CCOCC2)s1 | -16 | 2
CCN(C)c1nc(-c2ccc(F)cc2)ncc1C(=O)NCc1ccccn1 | -5 | 0.75
Cc1cc(Cl)cc(Cl)c1CNC(=O)N(C)CC1(C)COC1 | -11 | 1.85
CCN(C)C(C)(C)CNc1nc2c(c(=O)[nH]1)Cc1ccccc1OC2 | -13 | 2.15
CC1CC1C(=O)C(C#N)C(=O)NCCc1ccccc1 (stereo unspecified) | -4 | 0.61
CCc1nnsc1N(Cc1ccc(F)cc1)c1ccc(OC)c(OC)c1 | -53 | 6.27
CCCc1cc(N2C[C@H](O)[C@@H](N3CCN(C)CC3)C2)nc(C)n1 | 0 | 0
N[C@H]1c2ccccc2C[C@@H]1NC(=O)c1ccc(-n2cnnn2)cc1 | -13 | 1.22
